# PubChem BioAssay AID504333 (National Center for Advancing Translational Sciences (NCATS), 2011)
# Hit rate of the full screen: of about 360,000 compounds, about 16,000 (4.4%) were called active. The shares of active, inactive and inconclusive entries below differ from those in the screen. Calls come from the whole dose curve; as a rule, active = well fitted inhibition curve with a large enough effect; inconclusive = small, poorly fitted or top-dose-only effect; inactive = no such curve, though single readings can be large or run the other way. Potencies of inconclusive entries are doubtful fits and often do not repeat.
# Biological target: Bromodomain adjacent to zinc finger domain protein 2B (Homo sapiens) (UniProt Q9UIF8)
# Test: qHTS Assay for Inhibitors of BAZ2B; note: nearly all actives have a fitted effect of over 60% in size
# Conditions: AlphaScreen BAZ2B-H3K14Ac peptide displacement; series mostly up to 114 µM
# Method in brief: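 AlphaScreen displacement of biotin-H3(5-23)K14Ac peptide (50 nM final) from BAZ2B (50 nM final) in PBS pH 7.4, 0.01% Tween-20; complex preformed 30 min RT, then compounds (top 110 uM) 30 min RT, beads 20 min dark.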
# Potency is the fitted concentration of half-maximal effect; tags give direction and shape of the fitted curve.
# Chain of UniProt Q9UIF8 (Q9UIF8 whole entry, looked up, the tested form may be a part): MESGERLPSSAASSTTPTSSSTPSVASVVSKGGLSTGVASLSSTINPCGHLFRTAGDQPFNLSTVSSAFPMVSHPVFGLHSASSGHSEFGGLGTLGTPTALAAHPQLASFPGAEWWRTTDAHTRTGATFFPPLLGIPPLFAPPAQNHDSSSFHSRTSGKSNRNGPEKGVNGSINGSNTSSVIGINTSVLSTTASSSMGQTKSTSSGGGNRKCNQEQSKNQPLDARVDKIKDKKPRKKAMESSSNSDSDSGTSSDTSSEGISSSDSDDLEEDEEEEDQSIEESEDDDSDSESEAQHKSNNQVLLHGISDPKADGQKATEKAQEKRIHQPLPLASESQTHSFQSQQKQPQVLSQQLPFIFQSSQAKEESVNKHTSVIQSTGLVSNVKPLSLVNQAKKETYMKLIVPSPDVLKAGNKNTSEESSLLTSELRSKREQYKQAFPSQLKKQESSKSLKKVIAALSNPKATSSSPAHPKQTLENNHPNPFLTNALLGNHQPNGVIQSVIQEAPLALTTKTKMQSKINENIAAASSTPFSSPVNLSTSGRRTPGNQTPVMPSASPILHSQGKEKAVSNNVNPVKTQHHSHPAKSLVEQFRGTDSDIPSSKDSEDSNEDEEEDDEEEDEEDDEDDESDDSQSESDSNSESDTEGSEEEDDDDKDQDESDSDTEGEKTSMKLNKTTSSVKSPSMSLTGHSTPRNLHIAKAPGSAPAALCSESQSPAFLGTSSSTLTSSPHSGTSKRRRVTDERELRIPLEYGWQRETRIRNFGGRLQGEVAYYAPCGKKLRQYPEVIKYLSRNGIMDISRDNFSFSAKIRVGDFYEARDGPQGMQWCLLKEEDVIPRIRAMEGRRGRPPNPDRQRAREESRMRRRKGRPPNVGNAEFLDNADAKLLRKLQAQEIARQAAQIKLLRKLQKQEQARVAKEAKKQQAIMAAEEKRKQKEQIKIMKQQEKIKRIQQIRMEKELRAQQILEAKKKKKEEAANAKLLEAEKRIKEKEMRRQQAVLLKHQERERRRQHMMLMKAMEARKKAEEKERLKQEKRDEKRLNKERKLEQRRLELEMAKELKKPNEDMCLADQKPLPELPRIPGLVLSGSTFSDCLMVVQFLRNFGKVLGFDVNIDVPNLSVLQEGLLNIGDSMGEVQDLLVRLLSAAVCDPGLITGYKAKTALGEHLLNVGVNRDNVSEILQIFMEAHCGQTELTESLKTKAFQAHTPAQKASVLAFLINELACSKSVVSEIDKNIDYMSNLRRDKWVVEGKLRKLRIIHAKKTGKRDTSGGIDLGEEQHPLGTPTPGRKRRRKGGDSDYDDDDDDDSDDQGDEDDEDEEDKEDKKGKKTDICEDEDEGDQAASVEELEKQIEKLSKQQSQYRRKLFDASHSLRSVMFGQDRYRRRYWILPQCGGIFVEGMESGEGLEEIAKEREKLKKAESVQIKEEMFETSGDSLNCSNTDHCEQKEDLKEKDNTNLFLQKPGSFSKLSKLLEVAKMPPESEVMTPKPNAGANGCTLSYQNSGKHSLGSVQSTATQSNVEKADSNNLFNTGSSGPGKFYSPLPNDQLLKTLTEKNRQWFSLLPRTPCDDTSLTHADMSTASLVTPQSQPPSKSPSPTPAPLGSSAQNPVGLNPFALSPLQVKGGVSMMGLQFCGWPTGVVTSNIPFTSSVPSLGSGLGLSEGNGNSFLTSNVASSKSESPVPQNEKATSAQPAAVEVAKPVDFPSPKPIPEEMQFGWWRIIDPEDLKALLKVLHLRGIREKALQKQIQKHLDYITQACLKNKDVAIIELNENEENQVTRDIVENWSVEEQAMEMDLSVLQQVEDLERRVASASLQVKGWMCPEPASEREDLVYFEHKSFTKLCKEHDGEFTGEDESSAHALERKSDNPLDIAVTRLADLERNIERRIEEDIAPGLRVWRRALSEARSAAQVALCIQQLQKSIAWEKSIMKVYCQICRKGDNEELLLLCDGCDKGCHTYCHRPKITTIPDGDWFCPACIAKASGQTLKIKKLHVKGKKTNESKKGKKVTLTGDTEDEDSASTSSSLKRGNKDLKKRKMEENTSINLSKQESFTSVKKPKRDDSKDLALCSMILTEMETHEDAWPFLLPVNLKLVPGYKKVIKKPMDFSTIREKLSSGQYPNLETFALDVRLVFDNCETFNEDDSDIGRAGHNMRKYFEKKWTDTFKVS
row,Structure (SMILES),Potency
1,COc1ccc(Br)cc1CNc1ccc(N2CCOCC2)cc1,active: 28.2 µM
2,Oc1ccccc1OCc1nc2ccccc2s1,inactive
3,Cc1c(C(=O)NN)[nH]c2ccc([N+](=O)[O-])cc12,active: 35.5 µM
4,Oc1c(CN2CCN(c3ccccn3)CC2)cc(Cl)c2cccnc12,active: 14.1 µM
5,CC(C)CCN(Cc1ccco1)S(=O)(=O)c1csc(C(N)=O)c1,"inconclusive: 79.4 µM [inhibitor, partial curve]"
6,O=C1CSC(c2cn(-c3ccccc3)nc2-c2cc3ccccc3oc2=O)N1Cc1ccco1 (stereo not drawn),"inconclusive: 79.4 µM [inhibitor, single point]"
7,Cc1ccccc1NC(=O)CCS(=O)(=O)c1ccc(Br)s1,"inconclusive: 79.4 µM [inhibitor, single point]"
8,COc1ccc(Cl)cc1NC(=O)CN1CCc2ccccc21,"inconclusive: 28.2 µM [inhibitor, full curve]"
9,Cc1cc(-c2csc(N)n2)c(C)n1CCc1ccccc1,active: 44.7 µM
10,O=C(COc1ccc(C(=S)N2CCC(Cc3ccccc3)CC2)cc1)N1CCOCC1,"inconclusive: 50.1 µM [inhibitor, partial curve]"
11,COc1cccc(C(=O)N2N=C(c3cccc(OC)c3)CC2(O)C(F)(F)F)c1 (stereo not drawn),inactive
12,CC(=O)N1CCCc2cc(S(=O)(=O)N3CCCC(C(=O)N4CCN(c5cc(C)ccc5C)CC4)C3)ccc21 (stereo not drawn),inactive
13,C/C=C/c1ccc(OCCCNC(C)CC)c(OC)c1 (stereo not drawn),active: 31.6 µM
14,CCOC(=O)N1CCC(c2[nH][nH]c(=O)c2C)CC1,inactive
15,O=C(NCc1ccc(F)cc1)C(Cc1ccccc1)n1cccc1 (stereo not drawn),"inconclusive: 79.4 µM [inhibitor, partial curve]"
16,CCOC(=O)c1c(N)sc(=S)c2c1CCC2,active: 44.7 µM
17,CCOc1ccc(Cn2cc(F)c(=O)[nH]c2=O)cc1,inactive
18,COCCN1C(=O)C(=O)/C(=C(/O)c2ccc(S(=O)(=O)N3CCOCC3)cc2)C1c1ccc(O)cc1 (stereo not drawn),"inconclusive: 89.1 µM [inhibitor, single point]"
19,Oc1ccccc1-n1c(-c2ccccc2)ccc1-c1ccccc1,"inconclusive: 56.2 µM [inhibitor, partial curve]"
20,O=S1(=O)N=C(N/N=C/C=C/c2ccccc2)c2ccccc21,"inconclusive: 89.1 µM [inhibitor, single point]"
21,COc1ccc(Cn2c(CO)cnc2SCC(=O)Nc2cccc(NC(C)=O)c2)cc1,"inconclusive: 89.1 µM [inhibitor, single point]"
22,NS(=O)(=O)c1ccc2c(c1)C1C=CCC1C(C1CC=CCC1)N2 (stereo not drawn),active: 50.1 µM
23,CCOC(=O)CC1C(=O)NCCN1c1nc2c(C)cccn2c(=O)c1/C=C1\SC(=S)N(C(C)CC)C1=O (stereo not drawn),"inconclusive: 11.2 µM [inhibitor, full curve]"
24,CC(C)NCC#CCOc1ccc(Cl)cc1,"inconclusive: 89.1 µM [inhibitor, partial curve, poor fit]"

row,Structure (SMILES),Potency
1,COc1ccc(NS(=O)(=O)c2ccc(N3CCCCC3)c(N)c2)cc1,"inconclusive: 50.1 µM [inhibitor, partial curve]"
2,CC1CCCC(NCC(O)COC(c2ccc(F)cc2)c2ccc(F)cc2)C1C (stereo not drawn),"inconclusive: 79.4 µM [inhibitor, partial curve]"
3,O=C(NCc1ccco1)c1ccc2c(c1)N(Cc1ccc(Cl)cc1)CCS2,"inconclusive: 79.4 µM [inhibitor, partial curve]"
4,O=C(NCC(=O)N(CCc1ccccc1)C(C(=O)NC1CCCC1)c1cccnc1)c1ccco1 (stereo not drawn),inactive
5,Cc1ccc(NC(=O)COC(=O)C2CC2(Cl)Cl)cc1C (stereo not drawn),inactive
6,c1ccc(-c2nnc(-c3ccccn3)s2)nc1,"inconclusive: 89.1 µM [inhibitor, single point]"
7,C#CCOCCOCCOCCNc1nc(N2CCN(C(=O)[C@H](CCC(=O)O)n3cc(C(N)CC(C)C)nn3)CC2)nc(N2CCN(C(=O)[C@H](Cc3cc4ccccc4[nH]3)n3cc(C(N)CC(C)C)nn3)CC2)n1 (stereo partly drawn),active: 50.1 µM
8,CCCCNC(=O)CSc1cc(=O)n(C)c2ccccc12,inactive
9,CCn1ccc(C(=O)Nc2ccc(S(=O)(=O)Nc3ccccc3OC)cc2)n1,"inconclusive: 7.08 µM [inhibitor, single point]"
10,CCOC(=O)C1=C(CN2CCN(C(=O)c3ccco3)CC2)NC(=O)NC1c1ccc(OC(C)C)cc1 (stereo not drawn),"inconclusive: 44.7 µM [inhibitor, partial curve]"
11,CCCCCC(=O)NC(NC(=S)Nc1ccc(S(N)(=O)=O)cc1)C(Cl)(Cl)Cl (stereo not drawn),inactive
12,Cn1cnnc1Sc1ccc(/C=C/C(=O)c2ccc(O)cc2)cc1[N+](=O)[O-],"inconclusive: 70.8 µM [inhibitor, single point]"
13,N=c1c(C(=O)NCCN2CCOCC2)cc2c(=O)n3ccccc3nc2n1CCCN1CCOCC1,"inconclusive: 89.1 µM [inhibitor, single point]"
14,O=C(NCc1ccccc1)c1ccc2c(c1)nc1n2CCCCC1,inactive
15,Cc1[nH]nc(N)c1N=Nc1ccc(Br)cc1,active: 39.8 µM
16,Cc1ccc(S(=O)(=O)n2nc(C)cc2N)cc1,inactive
17,Cn1cc(Br)c(C(=O)Nc2c(F)c(F)c(F)c(F)c2F)n1,inactive
18,O=C(NCCCN1CCCC1=O)c1ccccc1NS(=O)(=O)c1ccc(Br)cc1,"inconclusive: 10 µM [inhibitor, single point]"
19,O=C(CN1CCN(c2ccc(F)cc2)CC1)NC(=O)NCc1ccco1,"inconclusive: 70.8 µM [inhibitor, single point]"
20,Cc1nc(-c2cc(-c3nc(-c4ccc(C(C)(C)C)cc4)no3)no2)cs1,inactive
21,CN(C)c1ccc(N2C(=NC(=O)c3ccccc3)SC3CS(=O)(=O)CC32)cc1 (stereo not drawn),"inconclusive: 50.1 µM [inhibitor, partial curve]"
22,O=c1[nH]c(CSc2nnc(Cc3ccccc3)o2)nc2ccccc12,inactive
23,CCCCCCCn1c(NC(=O)CC)nc2ccccc21,inactive
24,CC(C)CCn1c(SCC(=O)N2CC(=O)Nc3ccccc32)nc2scc(-c3cccs3)c2c1=O,inactive
